# Measurements published in PubChem BioAssay AID686979 (National Center for Advancing Translational Sciences (NCATS), 2013).
# The whole screen tested about 420,000 compounds, of which about 50,000 (12%) were called active. This list was built around the results that the source calls inconclusive (neither active nor inactive); the mix of calls is not that of the screen. Calls come from the whole dose curve; as a rule, active = well fitted inhibition curve with a large enough effect; inconclusive = small, poorly fitted or top-dose-only effect; inactive = flat fitted curve, though single readings scatter. Potencies of inconclusive entries are left out as doubtful fits.
# Experiment: qHTS for Inhibitors of human tyrosyl-DNA phosphodiesterase 1 (TDP1): qHTS in cells in presence of CPT; note: nearly all actives have a fitted effect of over 55% in size
# Conditions: chicken DT40 Tdp1-/-;hTDP1 cells + 20 nM CPT, ATP luminescence, 48 h; activity change, negative = growth inhibition: at 46.2 µM (top of the series) unless noted
# Summary of the method: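 Cell growth measured by CellTiter-Glo luminescence after a minimum 48 h, 37 C compound exposure with 20 nM CPT in Tdp1-knockout DT40 cells stably expressing hTDP1, seeded 400/well; qHTS titration format.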
# % is set by controls: 0 for no effect and ±100 for the full control effect; potency is the fitted concentration of half-maximal effect; tags give direction and shape of the fitted curve.
SMILES,Potency,"activity change, negative = growth inhibition"
COc1cccc(NC(=O)Cn2c(=O)n(-c3ccc(C)cc3)c(=O)c3ccc(C(=O)NCc4ccco4)cc32)c1,active: 16.4 µM,–
CC(=O)N1/C(=C/c2ccc(N(C)C)cc2)C(=O)c2ccccc21,active: 0.517 µM,–
Cc1c(C(=O)Nc2cccc(Cl)c2)oc2ccc(S(=O)(=O)N(C)C3CCCCC3)cc12,"inconclusive [inhibitor, single point]",–
Cn1cnc([N+](=O)[O-])c1N=C(N)N,inactive,–
COc1ccc(N2CCN(C(=O)Cc3ccc(-n4c(=O)[nH]c5ccccc5c4=O)cc3)CC2)cc1,"inconclusive [inhibitor, single point]",–
Cc1ccc2cc(CN(CC3CCCO3)S(=O)(=O)c3ccccc3)c3nnnn3c2c1 (stereo not drawn),active: 29.1 µM,–
NC(c1ccccc1)c1csc(NC(=O)Nc2cccc(Cl)c2)n1 (stereo not drawn),"inconclusive [inhibitor, single point]",–
COc1cccc2sc3cc(NCCCN4CCOCC4)ccc3c(=O)c12,"inconclusive [inhibitor, partial curve]",–
CC(C)C[C@H](NC(=O)OC(C)(C)C)C(=O)N[C@@H](CO)[C@H](O)[C@@H]1C[C@@H]1C(=O)NC1CCCCC1,inactive,–
CCC(Sc1nncn2c1cc1oc(C)cc12)C(=O)Nc1ccc(F)cc1 (stereo not drawn),"inconclusive [inhibitor, single point]",–
CCc1cccc(NC(=O)C(c2ccccc2)N2Cc3ccccc3C2=O)c1 (stereo not drawn),"inconclusive [inhibitor, single point]",–
Cc1ccc(OC2CCN(C(=O)[C@H]3O[C@@H](n4cnc5c(N)ncnc54)[C@H](O)[C@@H]3O)CC2)cc1,"inconclusive [inhibitor, single point]",–
COc1ccc(CN2C(=O)CC(C(=O)NCCc3ccc(S(N)(=O)=O)cc3)SC2=Nc2ccccc2)cc1 (stereo not drawn),"inconclusive [inhibitor, single point]",–
COc1cc(C)c(C)cc1S(=O)(=O)Nc1cccc(-c2ccc(N3CCOCC3)nn2)c1,"inconclusive [inhibitor, single point]",–
COc1ccccc1OCC(O)CO (stereo not drawn),inactive,–
COc1ccc(CCNC(=O)C(=O)NCC(c2ccco2)S(=O)(=O)c2ccc(F)cc2)cc1 (stereo not drawn),"inconclusive [inhibitor, single point]",–
Cc1ccc(C)c(-n2cc(-c3ccc(Cl)cc3)nc2SCC(=O)NC2CCS(=O)(=O)C2)c1 (stereo not drawn),"inconclusive [inhibitor, single point]",–
COc1cccc(-c2csc(NC3OC(=O)c4c3ccc(OC)c4OC)n2)c1 (stereo not drawn),"inconclusive [inhibitor, single point]",–
CC(=O)N1CCSc2ccc(S(=O)(=O)Nc3ccccc3C)cc21,"inconclusive [inhibitor, full curve, poor fit]",–
COC(=O)c1[nH]c2ccc(F)cc2c1NC(=O)CCN1CC(C)OC(C)C1 (stereo not drawn),inactive,–
Cc1ccc(Sc2ccc(/C=C3/C(=O)NN(c4ccccc4)C3=O)o2)cc1,"inconclusive [inhibitor, single point]",–
Cc1cccc(NC(=O)Cn2cnc3c(oc4ccccc43)c2=O)c1,inactive,–
Nn1c(SCC(=O)NCc2ccc3c(c2)OCO3)nnc1C(F)(F)F,inactive,–

SMILES,Potency,"activity change, negative = growth inhibition"
C=CCN1c2ccccc2[C@]23C[C@@H](C(=O)OC)N(C(=O)c4ccc(Br)cc4)C2=NC(C(=O)OC)=C(C(=O)OC)[C@H]13,"inconclusive [inhibitor, single point]",–
O=C(Nc1ccc(C(=O)N2CCCC2)cc1)c1cccc(C(F)(F)F)c1,inactive,–
COc1cccc(CNC(=O)CCCn2nc(C)c3c(C)n(-c4ccccc4)nc3c2=O)c1,"inconclusive [inhibitor, single point]",–
Fc1cccc(-c2cc3nc(-c4ccccc4)cc(N4CCC5(CC4)OCCO5)n3n2)c1,"inconclusive [inhibitor, single point]",–
Fc1ccc(CNc2nc(-c3ccccc3)nc3ccccc23)cc1,"inconclusive [inhibitor, single point]",–
O=C(COc1ccc([N+](=O)[O-])cc1)Nc1ccc2[nH]c(=O)[nH]c2c1,inactive,–
O=C(CNc1ccccc1)N/N=C/c1ccc([N+](=O)[O-])o1,active: 10.3 µM,–
COc1cc(/C=C(\C#N)c2nc3ccccc3o2)ccc1O,inactive,–
CC(C)CNC(=O)Cn1c(=O)c2c(ncn2CC(C)C)n(Cc2ccccc2)c1=O,inactive,–
CCCc1nc(SCC(=O)Nc2nnc(SCC)s2)c2c(=O)n(C)c(=O)n(C)c2n1,active: 4.11 µM,–
C#CCn1c(=NC(=O)c2cc(Cl)sc2Cl)sc2cc(S(N)(=O)=O)ccc21,inactive,–
Cc1onc(-c2ccc(Cl)cc2)c1-c1ccnc(SCC(=O)Nc2cc(Cl)cc(Cl)c2)n1,"inconclusive [inhibitor, single point]",–
O=C(CCc1ccccc1)C(=O)N1CCCC(C(=O)c2cccc(Cl)c2)C1 (stereo not drawn),"inconclusive [inhibitor, partial curve]",–
O=C(NC1CC1)C(Cc1ccccc1)NS(=O)(=O)c1ccccc1F (stereo not drawn),active: 16.4 µM,–
CCOC(OCC)c1cn(Cc2ccc(C(=O)c3ccccc3)cc2)nn1,active: 23.1 µM,–
CCNC(=O)C1(C)CCCN(Cc2cccc3ccccc23)C1 (stereo not drawn),"inconclusive [inhibitor, single point]",–
Cc1ccc(S(=O)(=O)N2CCCCC2CCNC(=O)C(=O)NCc2cccnc2)cc1 (stereo not drawn),active: 20.6 µM,–
CCN(CC)CCSc1nc(O)c(-c2ccccc2)c(=O)[nH]1,inactive,–
Cc1ccc(NC(=O)CS(=O)CC(=O)N(c2ccccc2)C(C)C(=O)NC2CCCC2)cc1 (stereo not drawn),"inconclusive [inhibitor, single point]",–
COC(=O)c1cccc(Nc2nc(-c3cccnc3)nc3ccccc23)c1,"inconclusive [inhibitor, single point]",–
CCc1ccccc1NC(=O)CSc1nnc2ccc3ccccc3n12,"inconclusive [inhibitor, single point]",–
Cc1cccc(N2CCN(S(=O)(=O)c3cc(C(=O)Nc4ccccc4Cl)ccc3F)CC2)c1C,"inconclusive [inhibitor, single point]",–
CCN(CC)C(=O)C(c1ccccc1)S(=O)(=O)N1CCOCC1 (stereo not drawn),inactive,–

SMILES,Potency,"activity change, negative = growth inhibition"
COc1ccc(C2N(C(C)=O)CCN2S(=O)(=O)c2ccc(C)cc2)cc1 (stereo not drawn),"inconclusive [inhibitor, single point]",–
COc1ccc2[nH]c(=O)c(CN(Cc3cccs3)Cc3nnnn3C(C)(C)C)cc2c1,"inconclusive [inhibitor, single point]",–
CCC(C)(C)n1nnnc1C(c1ccccc1)N1CCc2ccccc2C1 (stereo not drawn),"inconclusive [inhibitor, single point]",–
Cc1cc2ccccn2c1C(=O)c1nc(NCc2ccco2)ncc1Cl,"inconclusive [inhibitor, single point]",–
COc1ccccc1NC(=O)CSc1nnc(-c2ccoc2C)o1,"inconclusive [inhibitor, single point]",–
COc1cccc(CNC(=O)CC(NC(=O)c2ccccc2)c2ccccc2)c1 (stereo not drawn),"inconclusive [inhibitor, partial curve, poor fit]",–
CCOc1ccc(N(CC(=O)NCCSCc2ccccc2)S(=O)(=O)c2ccccc2)cc1,"inconclusive [inhibitor, single point]",–
O=C(N1CCCC1)C12CCC3CC(CC(C3)C1)C2,"inconclusive [inhibitor, partial curve, poor fit]",–
CCc1c(C)nc2cc(-c3ccc(OC)c(OC)c3)nn2c1NCC1CC1,active: 13 µM,–
O=C(N/N=C\c1ccccc1F)c1ccc(-c2ccccc2)cc1,inactive,–
CNS(=O)(=O)c1ccc(NS(=O)(=O)c2ccccc2F)cc1,inactive,–
CCCCN(C(=O)c1cccs1)c1c(N)n(Cc2ccccc2)c(=O)[nH]c1=O,inactive,–
COc1ccc(C2=NN(C(=O)CSc3ncccn3)C(c3ccc(C)cc3)C2)cc1 (stereo not drawn),"inconclusive [inhibitor, single point]",–
CCCCNC(=O)C1=C(N)C(C(=O)Nc2ccc(C)c(S(=O)(=O)N3CCCCC3)c2)SC1=Nc1ccc(C)cc1C (stereo not drawn),active: 23.1 µM,–
CC(C)(C)NC(=O)CCN(/N=C/c1ccccc1F)C1=NS(=O)(=O)c2ccccc21,"inconclusive [inhibitor, single point]",–
COc1ccc(C(=O)Nc2cccc(-c3ccc4nncn4n3)c2)cc1OC,"inconclusive [inhibitor, single point]",–
Cc1sc(NC(=O)C(C)C)c(C(=O)Nc2ccccc2)c1C,"inconclusive [inhibitor, single point]",–
COc1ccc(NS(=O)(=O)c2ccc3oc(SC)nc3c2)cc1,active: 11.6 µM,–
COc1ccc(OC)c(CCNC(=O)C2CCN(c3nnc(-n4cccc4)s3)CC2)c1,"inconclusive [inhibitor, single point]",–
COC(=O)c1[nH]c2ccccc2c1NC(=O)CN1CCN(C(=O)c2ccco2)CC1,–,inconclusive: -30.1% [inhibitor]
Cc1cc(S(=O)(=O)C(CNC(=O)COc2ccc(Cl)cc2)c2cccs2)ccc1F (stereo not drawn),active: 2.59 µM,–
CC1C(c2ccccc2)N(C)C(c2ccccc2)CC1(O)c1ccccc1 (stereo not drawn),"inconclusive [inhibitor, single point]",–
